This passage reports relative growth results from the supplement of paper PMC9446081.

Screen size: about 39,000 compounds; about 220 (0.56%) showed activity. Some of the results follow.
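Note: static incubation at 37 °C against the wild-type strain, values averaged over two biological replicates.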

The experiment relates to Escherichia coli K-12 BW25113. The experiment can be described thus: relative growth (OD600 normalised to plate interquartile mean) (fraction); higher = less growth inhibition, active = 0.2 or less. The conditions noted are these: 50 µM; LB; incubation time: overnight (16-24 h).
For the compound `COc1ccc(S(=O)(=O)Nc2ccc3c(c2)C(=O)N([C@H](C)CO)C[C@H](C)[C@@H](CN(C)C(=O)Nc2ccc4c(c2)OCO4)OCCCC[C@@H](C)O3)cc1`, the relative growth is inactive: 1.02.

With `C[C@@H]1CN([C@@H](C)CO)S(=O)(=O)c2ccc(C#Cc3ccccc3F)cc2O[C@H]1CN(C)C(=O)Cc1cccnc1`, the relative growth was inactive: 1.

In the case of `C[C@H](CO)N1C[C@H](C)[C@@H](CN(C)S(C)(=O)=O)Oc2ccc(NC(=O)Nc3ccc(C(F)(F)F)cc3)cc2C1=O`, the relative growth is inactive: 1.

For the compound `COc1ccc(NC(=O)Nc2ccc3c(c2)C(=O)N([C@@H](C)CO)C[C@@H](C)[C@@H](CN(C)CC2CCCCC2)OCCCC[C@@H](C)O3)cc1`, the relative growth was inactive: 0.955.

`COc1ccc(NC(=O)N(C)C[C@H]2OCCCC[C@H](C)Oc3ccc(NC(=O)Nc4ccc(F)cc4)cc3C(=O)N([C@@H](C)CO)C[C@@H]2C)cc1`: the relative growth was inactive: 0.993.

Turning to `C[C@H](CO)N1C[C@H](C)[C@H](CN(C)Cc2ccc(C(=O)O)cc2)Oc2c(NC(=O)C3CC3)cccc2C1=O`, the relative growth is inactive: 1.02.

As for `C[C@@H]1CCCCO[C@@H](CN(C)C(=O)Nc2ccc3c(c2)OCO3)[C@@H](C)CN([C@@H](C)CO)C(=O)c2cc(NC(=O)Nc3ccc(F)cc3)ccc2O1`, the relative growth is inactive: 1.03.

Turning to `CN1CCC[C@]2(CCN(C(=O)CCn3ccc(=O)[nH]c3=O)C2)C1=O`, the relative growth is inactive: 0.987.

As for `CCCN(C)C[C@H]1OCCCC[C@H](C)Oc2ccc(NS(=O)(=O)c3ccc(Cl)cc3)cc2C(=O)N([C@@H](C)CO)C[C@H]1C`, the relative growth was inactive: 0.973.

`C[C@@H]1CCCCO[C@@H](CN(C)Cc2ccc3c(c2)OCO3)[C@H](C)CN([C@H](C)CO)C(=O)c2cc(NC(=O)Nc3ccccc3)ccc2O1`: the relative growth is inactive: 0.98.

As for `C[C@@H]1CN([C@@H](C)CO)C(=O)c2cc(NS(=O)(=O)c3ccc(Cl)cc3)ccc2O[C@@H](C)CCCCO[C@@H]1CN(C)Cc1ccc(C(=O)O)cc1`, the relative growth is inactive: 1.05.

`COc1ccc(NC(=O)N(C)C[C@H]2Oc3ccc(NC(=O)Nc4ccc(C(F)(F)F)cc4)cc3C(=O)N([C@H](C)CO)C[C@H]2C)cc1`: the relative growth is inactive: 1.02.

Consider `COc1ccc(S(=O)(=O)N(C)C[C@@H]2Oc3ccc(NC(=O)c4ccncc4)cc3C(=O)N([C@H](C)CO)C[C@H]2C)cc1`, for which the relative growth was inactive: 1.01.

Turning to `CC(C)NC(=O)N(C)C[C@@H]1Oc2ccc(NC(=O)CCN3CCOCC3)cc2C(=O)N([C@H](C)CO)C[C@H]1C`, the relative growth is inactive: 1.

Consider `Nc1ccccc1C(=O)NCCN1CCNC1=O`, for which the relative growth is inactive: 1.01.

In the case of `COc1ccc(CN(C)C[C@@H]2OCCCC[C@@H](C)Oc3ccc(NC(=O)CCC(F)(F)F)cc3C(=O)N([C@H](C)CO)C[C@@H]2C)cc1`, the relative growth is inactive: 1.01.

`C[C@H]1CN([C@@H](C)CO)C(=O)CCCn2cc(nn2)CO[C@H]1CN(C)C(=O)Nc1cccc2ccccc12`: the relative growth was inactive: 1.

Take `C=CC[C@@H](CC(=O)N(CCO)Cc1ccccc1)C(=O)N[C@H](COC(=O)[C@H](CC=C)NC(=O)OCC1c2ccccc2-c2ccccc21)C(C)(C)C`: the relative growth was inactive: 1.01.

On to `O=C(O)CN1CCOC1=O`, for which the relative growth is inactive: 1.02.

For `C[C@H](CO)N1C[C@H](C)[C@@H](CN(C)Cc2ccccc2)Oc2ccc(NC(=O)CCCCCC(=O)Nc3ccccc3N)cc2C1=O`, the relative growth is inactive: 1.01.

Regarding `Cc1noc(C)c1NC(=O)Nc1ccc2c(c1)C(=O)N([C@@H](C)CO)C[C@H](C)[C@@H](CN(C)S(C)(=O)=O)O2`, the relative growth is inactive: 0.987.

`CCc1nc2ccccc2nc1CC`: the relative growth is inactive: 0.997.

Consider `C[C@H]1CN([C@@H](C)CO)C(=O)Cc2cc(NS(=O)(=O)c3ccccc3)ccc2O[C@H]1CN(C)S(C)(=O)=O`, for which the relative growth was inactive: 1.03.

Take `COc1ccccc1OC[C@@H](O)COC(N)=O`: the relative growth is inactive: 1.02.

With `C[C@H](CO)N1C[C@H](C)[C@@H](CN(C)CC2CCCCC2)OCCCC[C@H](C)Oc2ccc(NC(=O)Nc3ccc4c(c3)OCO4)cc2C1=O`, the relative growth is inactive: 1.02.

Regarding `Cc1noc(C)c1S(=O)(=O)Nc1ccc2c(c1)C(=O)N([C@H](C)CO)C[C@@H](C)[C@H](CN(C)C(=O)Nc1ccc(C(F)(F)F)cc1)OCCCC[C@@H](C)O2`, the relative growth is inactive: 0.992.

`C[C@@H](C(=O)N(C)C[C@@H]1OCc2ccccc2-c2c(n(C)c3ccccc23)C(=O)N([C@@H](C)CO)C[C@@H]1C)c1ccccc1`: the relative growth was inactive: 1.01.

Turning to `CC(C)N1C[C@H](C)[C@@H](CN(C)Cc2ccc(Cl)c(Cl)c2)Oc2c(C(=O)Nc3ccncc3)cccc2C1=O`, the relative growth was inactive: 0.965.

As to `CO[C@@H]1CN(C)C(=O)c2cc(NS(=O)(=O)c3cn(C)cn3)ccc2OC[C@@H](C)N(CCC(F)(F)F)C[C@H]1C`, the relative growth is inactive: 0.976.

For `C=C(C)C1CCC2(C(=O)O)CCC3(C)C(CCC4C5(C)CCC(O)C(C)(C)C5CCC43C)C12` (stereo not drawn), the relative growth is inactive: 0.93.

For the compound `COc1ccc(S(=O)(=O)Nc2ccc3c(c2)C(=O)N([C@@H](C)CO)C[C@H](C)[C@H](CN(C)Cc2ccc4c(c2)OCO4)OCCCC[C@H](C)O3)cc1`, the relative growth is inactive: 0.984.

With `CN1CCN(C(=O)[C@H]2C[C@H]3CN(c4ncc(F)cn4)C[C@@H]3N2C)CC1`, the relative growth was inactive: 1.

Consider `C[C@H](CO)N1C[C@H](C)[C@H](CN(C)C(=O)Nc2ccc(F)cc2)OCCCC[C@H](C)Oc2ccc(NC(=O)C3CCCCCC3)cc2C1=O`, for which the relative growth is inactive: 0.991.

Consider `Cc1noc(C)c1NC(=O)N(C)C[C@@H]1Oc2c(NC(=O)Nc3cccc4ccccc34)cccc2C(=O)N([C@H](C)CO)C[C@@H]1C`, for which the relative growth was inactive: 1.

In the case of `COc1ccccc1-c1ccc2c(c1)O[C@@H](CN(C)S(=O)(=O)c1ccccc1)[C@H](C)CN([C@H](C)CO)S2(=O)=O`, the relative growth was inactive: 0.996.

As to `COc1ccc2c3c([nH]c2c1)[C@@H](CO)N(Cc1ccc(cc1)Cl)C[C@]13CN(CCc2ccccc2)C1`, the relative growth was inactive: 0.849.

Regarding `CC(=O)Oc1cc(-c2coc3cc(OC(C)=O)c(OC(C)=O)c(OC(C)=O)c3c2=O)cc(OC(C)=O)c1OC(C)=O`, the relative growth is inactive: 1.01.

Turning to `C[C@@H]1CN([C@@H](C)CO)C(=O)Cc2cc(NS(=O)(=O)c3ccc(Cl)cc3)ccc2O[C@H]1CN(C)S(C)(=O)=O`, the relative growth is inactive: 1.

Turning to `CCCC[P+](CCCC)(CCCC)Cc1ccc(NC(=O)[C@H](Cc2ccc3ccccc3c2)N/C(=N/C2CCCCC2)NC2CCCCC2)cc1`, the relative growth is active: 0.0326.

Consider `C[C@@H]1CCCCO[C@@H](CN(C)C(=O)Nc2ccc3c(c2)OCO3)[C@@H](C)CN([C@@H](C)CO)C(=O)c2cc(NC(=O)Nc3ccc(C(F)(F)F)cc3)ccc2O1`, for which the relative growth is inactive: 0.991.

`C[C@@H]1CN([C@H](C)CO)C(=O)CCCn2cc(nn2)CO[C@@H]1CN(C)S(=O)(=O)c1ccc(-c2ccccc2)cc1`: the relative growth is inactive: 0.969.

`C[C@@H]1CCCCO[C@H](CN(C)S(=O)(=O)c2cccs2)[C@H](C)CN([C@H](C)CO)C(=O)c2cc(NC(=O)C3CCCCC3)ccc2O1`: the relative growth was inactive: 1.03.

As for `COc1ccc(CN(C)C[C@H]2Oc3ccc(NS(C)(=O)=O)cc3C(=O)N([C@H](C)CO)C[C@@H]2C)cc1`, the relative growth is inactive: 0.998.

As for `CNC[C@@H]1Oc2ccc(NC(=O)Cn3cnnn3)cc2CC(=O)N([C@@H](C)CO)C[C@H]1C`, the relative growth was inactive: 1.02.

On to `COc1ccc([C@@H](NC(=O)C2CCN(Cc3ccc(Oc4ccccc4)cc3)CC2)c2ccccn2)cc1`, for which the relative growth was inactive: 1.04.

As to `C[C@H]1CN([C@@H](C)CO)C(=O)CCCn2cc(nn2)CO[C@H]1CN(C)C(=O)Nc1cccc(C(F)(F)F)c1`, the relative growth was inactive: 0.991.

For the compound `C[C@@H]1CCCCO[C@@H](CN(C)S(=O)(=O)c2cn(C)cn2)[C@@H](C)CN([C@H](C)CO)C(=O)c2cc(NS(=O)(=O)c3cn(C)cn3)ccc2O1`, the relative growth is inactive: 1.02.

Take `C[C@@H]1CN([C@@H](C)CO)C(=O)c2cc(NC(=O)Nc3ccc(C(F)(F)F)cc3)ccc2O[C@@H]1CN(C)C(=O)Nc1ccc2c(c1)OCO2`: the relative growth was inactive: 1.03.

On to `COc1ccc(S(=O)(=O)N(C)C[C@@H]2Oc3c(NC(=O)Nc4c(C)noc4C)cccc3C(=O)N([C@@H](C)CO)C[C@@H]2C)cc1`, for which the relative growth is inactive: 1.01.

For `C[C@H](CO)N1C[C@H](C)[C@H](CN(C)C(=O)Nc2ccc(C(F)(F)F)cc2)Oc2ccc(NC(=O)Cc3cn(C)c4ccccc34)cc2CC1=O`, the relative growth was inactive: 1.03.

For `CCCN(C)C[C@H]1OCCCC[C@@H](C)Oc2ccc(NC(=O)CCC(F)(F)F)cc2C(=O)N([C@H](C)CO)C[C@@H]1C`, the relative growth was inactive: 0.979.

Regarding `CN1CCN(C(=O)C[C@@H]2CC[C@@H]3[C@@H](COc4ccc(NC(=O)C5CCOCC5)cc4C(=O)N3C)O2)CC1`, the relative growth is inactive: 1.01.

For `CCCNC(=O)[C@@]1(Sc2ccc(C)cc2)CC(=O)N(Cc2ccccc2C(F)(F)F)[C@@H]1c1ccc(CO)cc1`, the relative growth is inactive: 0.978.

Take `C[C@H]1CN([C@@H](C)CO)C(=O)Cc2cc(NC(=O)CCC(F)(F)F)ccc2O[C@@H]1CN(C)Cc1ccc(C(F)(F)F)cc1`: the relative growth was inactive: 1.03.

Regarding `Cc1ccc(S(=O)(=O)N(C)C[C@H]2OCCCC[C@@H](C)Oc3ccc(NC(=O)Nc4ccc(F)cc4)cc3C(=O)N([C@@H](C)CO)C[C@H]2C)cc1`, the relative growth was inactive: 1.06.

Regarding `C[C@H]1CN([C@@H](C)CO)C(=O)c2cccc(NC(=O)Nc3cccc4ccccc34)c2O[C@H]1CN(C)Cc1ccc(Cl)c(Cl)c1`, the relative growth was inactive: 1.01.

For the compound `CN1CCN(C(=O)C[C@H]2CC[C@@H]3[C@@H](COc4ccc(NC(=O)C5CCCCC5)cc4C(=O)N3C)O2)CC1`, the relative growth was inactive: 0.992.

Regarding `COc1ccc(NC(=O)Nc2cccc3c2O[C@H](CN(C)Cc2ccc(C(F)(F)F)cc2)[C@@H](C)CN([C@H](C)CO)C3=O)cc1`, the relative growth was inactive: 0.779.
